The subject of this test is NCI-H322M lung. The test is described as follows: NCI tumour cell line growth inhibition, 48 h.

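How tested: cells in 96-well plates exposed to compound for 48 hours at five concentrations. GI50 marks 50% less growth. TGI is the concentration that stops growth completely.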 A value given as a limit tells only on which side of the number the result lay.

In the case of `N.N.N.N.N#N.N#N.[Cl-].[Os+6]`, the GI50 is over 100 µM and the TGI is over 100 µM.
For `CN1C/C(=C\c2cccs2)C2=NN(c3ccccc3)C(c3cccs3)C2C1` (centres undefined), the TGI is over 100 µM.
On the same count and under the same terms, for `Cn1cc(-c2ccc3c4ccccc4n(C)c3c2)c2ccccc21` the value was over 100 µM.
`O=C(CSSCC(=O)c1ccc(Cl)cc1)c1ccc(Cl)cc1`: the GI50 was 10.2 µM and the TGI came out at 51.3 µM.
Turning to `O=C(O)/C=C/c1c2ccc(=O)c(O)c-2oc2c(O)c(O)ccc12`, the TGI was over 100 µM.
Compound `COc1cc(/C=C/c2ccc(OC)c(OC)c2)oc(=O)c1` gave a TGI of over 250 µM.
`C=C1C(=O)OC2CC1C(OC(=O)/C=C/c1ccccc1)C/C(C)=C/CC/C(C)=C/CCC2(C)O` (centres undefined) displayed a TGI of 13.7 µM.
On the same count and under the same terms, under `COc1cc(/C=C/C(=O)CC(=O)/C=C/c2cc(C)c(O)c(OC)c2)cc(C)c1O` stands over 100 µM.
As to `OCc1c(-c2cccs2)oc(-c2cccs2)c1CO`, the GI50 was 29.8 µM and the TGI was over 100 µM.
`O=c1[nH]c2nc3ccccc3c(=O)n2nc1Cc1ccccc1`: the TGI was over 100 µM.
The same measure, in the same setting: for `O=C(Nc1ccccc1C(=O)NCc1ccccc1)/C(=C/c1ccccc1O)NC(=O)c1ccccc1` the value was over 100 µM; for `CCN(Cc1cc(Cl)cc(C)c1O)Cc1c(O)ccc2ccccc12`, 32.4 µM.
As for `COc1ccc(-n2nc(C)c3c(Nc4ccc(NC(=O)Nc5cccc(C(F)(F)F)c5)cc4)ncnc32)cc1`, the GI50 is 1.7 µM and the TGI is 3.96 µM.
With `COc1ccc(CCN2CCCn3c2nc2ccccc2c3=O)cc1`, the GI50 is 0.274 µM and the TGI was over 100 µM.
`O=C(CC(C(=O)c1ccsc1)c1cccs1)c1ccccc1` (centres undefined) had a TGI of over 100 µM.
Compound `Nc1cc(C2CCCc3c2[nH]c2ccccc32)ccc1O` (centres undefined) came in with a TGI of over 100 µM.
The same measure, in the same setting: under `ClCCCN1CCN(CCCl)CC1` stands over 1000 µM; under `COc1ccc2c(c1)/C(=C\c1c(Cl)nc3n1CCS3)C(=O)N2`, over 100 µM.
`COC1CCCc2c(OC(C)=O)ccc(OC(C)=O)c21` (centres undefined): the TGI was over 100 µM.
Still for that read-out and setting: under `O=C(n1c2ccccc2c2n[nH]c(=S)nc21)C(F)(F)F` stands over 100 µM; under `CCOC(=O)/C(C(N)=O)=C(\O)C(=O)/C=C(\O)c1ccc(Cl)cc1`, over 100 µM; under `COc1ccccc1/C=C1\C(=O)N(C(=O)Cc2ccccc2)N=C1C`, over 100 µM.
Compound `COC(=O)NC1(NC(=O)OC)NC(=O)c2ccccc2N1` yielded a TGI of over 100 µM.
On the same count and under the same terms, for `COc1c(C(=O)/C(=N/Nc2ccc(C(=O)O)cc2)C(C)=O)c(O)cc2occc12` the value was over 100 µM.
The compound `N=c1oc2cc(O)ccc2cc1C(=O)Nc1ccccn1` registered a TGI of over 100 µM.
Take `COc1cc(C[C@H]2COC(=O)[C@]2(O)Cc2ccc(OCc3ccccc3)c(OC)c2)ccc1OCc1ccccc1`: the GI50 was over 100 µM and the TGI was over 100 µM.
`CCN(CC)Cc1cc(N=Nc2c(O)ccc3c(N=Nc4ccc(O)c(CN(CC)CC)c4)c(O)ccc23)ccc1O` yielded a TGI of 17 µM.
Still for that read-out and setting: under `CC(=O)OC1(Sc2ccccc2)CC2[C@H]3COC(C)(C)O[C@H]3CC[C@@]2(C)CC1=O` (some centres undefined) stands over 100 µM; under `O=C(NC(=S)Nc1ccc(Br)cc1)c1ccc2c(c1)Sc1ccccc1O2`, over 100 µM.
Turning to `CCC1(O)C(=O)OCc2c1cc1n(c2=O)Cc2cc3cc4c(cc3nc2-1)OCO4` (centres undefined), the TGI stood at 4.51 µM.
The same measure, in the same setting: under `O=S(=O)(F)Cc1ccccc1` stands over 100 µM; under `S=C1SCC2CCCN12` (centres undefined), over 100 µM; under `C(=N\NC1=NCCCCN1)/c1ccc2ccccc2c1`, over 100 µM.
Same read-out and setting: for `CCc1cn2c(/C=N/N=C(N)N)c(-c3cc(C)c(Cl)cc3Cl)nc2s1` the value was 3.98 µM; for `O=[N+]([O-])c1ccc(C[P+]2(c3ccccc3)CCCCC2)cc1` (tested in a mixture with another compound), over 100 µM.
Consider `O=C1c2c(c3c4cc(F)ccc4oc3c3[nH]c4ccccc4c23)C(=O)N1O`, for which the GI50 is 4.23 µM and the TGI was over 100 µM.
`CC1=NNC(=O)C1C1(C(=O)O)CC(c2c[nH]c3ccccc23)=NC(=S)N1` (centres undefined) came in with a TGI of over 100 µM.

The values above are taken from PubChem BioAssay (NCI).
